# The supplement of paper PMC11417369
# The list shows a part of the results.
# Test system: PfSIP2 AP2 domain 1 (GST-tagged)
# Test: gcPBM binding intensity (ln(normalized median fluorescence intensity)); higher = stronger DNA binding
# Summary of the method: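 Binding of GST-tagged P. falciparum DNA-binding domains, expressed in E. coli and used at about 25 μg on average, was carried out for 1 h in 1× PBS containing 1% milk, 0.2 mg/ml BSA, 0.5% salmon testes DNA and 0.03% Triton X-100. The target was an Agilent 4 × 180k array of primer-extended double-stranded 36-bp intergenic genomic probes plus negative controls, read with Alexa488 anti-GST antibody at 488 nm. Binding intensity is the highest Masliner-normalised natural-log median intensity across replicate spots of either probe orientation.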
row,Sequence,gcPBM binding intensity (ln)
1,GACAAATTATTGTGTACACAATATTATTATATATAC [CACACA_site6020],7.49
2,CTTATGTTTTTTAAGTGTACATATTATACGTATTAT [XGTACX_site1176],7.15
3,TAAATATATATAATTACACACTTTTCTATAATATGA [CACACA_site711],6.87
4,TTAAGATATATAAAGAGTACACATAAGAGTAATGCT [XGTACX_site58],6.88
5,TATAATACATTATATTGTACTATATTATAATAAATT [XGTACX_site5934],7.04
6,ATCATTTAAACAATATGTACTCATTGTAGATATGGT [XGTACX_site5088],7.17
7,TGAATAAAATATTATACACACATATGTATTTAACAT [CACACA_site4694],6.94
8,AATGGGATCATGGTATGTACTTACACAAATGAATTA [XGTACX_site5389],6.82
9,TTGTATTTACTATACACACACATACATACATACATA [CACACA_site4603],7.07
10,CGTTACACAAAAATATGTACATATATACATATATAT [XGTACX_site4631],7.3
11,TATAAATATAAATACTGTACATTATATTATATAATA [XGTACX_site2480],6.95
12,TATTCCCCCAAACACACACACACACCCACATACCAC [CACACA_site2304],7.83
13,TAAAAATAATATTAATGTACATTACATATTAATATA [XGTACX_site1019],6.83
14,ATATATATATATATGTGTACATATTAGTGATATAAT [XGTACX_site7161],9.14
15,AATGCGCATTTTTTTTTTTTTTTTTTTTTTTTTTTT [XGTACX_negctrl_site258],8.83
16,ATTCTATATGTTACATAAACCTATATTTTTTTTTTT [CACACA_negctrl_site860],6.84
17,ATAAAGCCATACAATACACACATTTTACATGTCGGT [CACACA_site3265],6.87
18,TAAGCCACCATATTTACACACACATCAAAATGTATT [CACACA_site1815],7.03
19,GAAAAAAGAAATTTATGTACATACATATATATATAT [XGTACX_site7888],9

row,Sequence,gcPBM binding intensity (ln)
1,ATATGTAAAATATGGGGTACGAAGGTAGGTAGGTAA [XGTACX_site1392],7.42
2,TAATATTGACTATATACACACATATAAATATAAATA [CACACA_site6414],6.96
3,TATATATATATATATACATGCATCATTGTTCACCTT [TGCATGCA_site177],9.31
4,TTTTTTTTTTAATTAACACACATAAATATAAATATA [CACACA_site7527],6.89
5,AAAAAAAAAAAAAAAAGTACATATGCTCAAGAGATG [XGTACX_site3783],7.69
6,CATTCAAAGAAAAACAGTACGTGTAGCAAAAGGCCT [XGTACX_site266],6.92
7,TAAATAATATAATTATGTACGTATTTCTTTATTTTA [XGTACX_site8410],6.89
8,GCTGAAAATAAATGAAGTACACAAGTAATATATATA [XGTACX_site6205],7.8
9,TCTTATAAAGGTAATTGTACATATTTATAATTTCTT [XGTACX_site4847],6.76
10,GTGAAAGGAAAAGTTGAACACACAAAGTAAACTATA [CACACA_site9178],6.74
11,AATAATATTTAATACGCACACAATAATAATATAAAA [CACACA_site1763],7.23
12,CACACGCACGAACACACACACATATAAATATAAATA [CACACA_site6299],7.56
13,ATATATTATTATACATGTACATATATAGATATATAT [XGTACX_site4358],7.08
14,AACAATAATTTTGAATGTACATATAAATATTTTTAT [XGTACX_site5501],7.05
15,ATATACATATAGGATGCACACATAATTCAAATACAA [CACACA_site8120],8.22
16,AAAAAAAAGAATAGCACACACACATATATAAATATA [CACACA_site630],6.88
17,GTTAATTCTATGAATTGTACTTAAATATAATTATAT [XGTACX_site2785],7.02
18,ATAAATACTAAAAATGAAATATAGAAAATAGCAATA [CACACA_negctrl_site501],6.89
19,ACAGTTAAAACAATAACACACAAAGAAAAAAAAAAA [CACACA_site737],6.97

row,Sequence,gcPBM binding intensity (ln)
1,CAAAATAAAAATAACACACACATTTATATAAATACA [CACACA_site4790],6.99
2,TATAATATATTATATACACACATTATAAAATACCCA [CACACA_site4858],6.96
3,TATATTTTTATTGAACGTACAAAAAGTCGAAAACAG [XGTACX_site3967],7.61
4,TTTAAATACAGACATACACACATACACGCACATATA [CACACA_site6400],7.17
5,AGGTAGAAATTGTTAAAAAATCATACATATTATATA [CACACA_negctrl_site622],6.9
6,TATATGTATCCATTATGTACATAATAGTAATATAAT [XGTACX_site4008],7.06
7,TATATTTATTTTCTGTGTACACATATGTTGTGTATT [XGTACX_site7640],7.27
8,AAAACCTAGTGCATTTGTACATATTTCAATTTTAAA [XGTACX_site4582],9.33
9,TAAAAAATACAAGAGTGTACAAAATTTTTCTAAATG [XGTACX_site5334],6.91
10,TATACGTGTTTTATTTGTACTTAAGCAGGTAAGCAT [XGTACX_site193],6.96
11,CTATATATTTTTTCTTAACACACATATATAAAATAA [CACACA_site9165],7.26
12,TTATTTTTTAATTATATTCAAAATTAAAAAAAAAAA [XGTACX_negctrl_site226],6.89
13,ATTGATAAATTAACTAGTACACATATAAATATATTA [XGTACX_site2325],7.15
14,ATTAAAAAAAAAAAAAAAAAAAAAAAAAAAAAAAAA [CACACA_negctrl_site1060],7.02
15,AATATAAATGTGATTACACACAACAGATTTAAATGG [CACACA_site4802],6.98
16,TAGTATTTATATGATTAACACACATATGGGTATTAA [CACACA_site8363],6.67
17,AAAAAAAAAAAAAAAAGTACTCAATAATAATTACAT [XGTACX_site670],7.74
18,CATAATAGTTATAAAATACACACCAGGCATGATAAA [CACACA_site329],6.76
